In PubChem BioAssay AID938 (National Center for Advancing Translational Sciences (NCATS), 2007):
In all, about 73,000 compounds went through this assay and about 1,800 (2.5%) were called active. Inconclusive means that the source gave no clear call. Such entries were picked first, then a sample of the others. Calls come from the whole dose curve; as a rule, active = well fitted activation curve with a large enough effect; inconclusive = small, poorly fitted or top-dose-only effect; inactive = no such curve, though single readings can be large or run the other way. Potencies of inconclusive entries are left out as doubtful fits.

Assay: qHTS Assay for Agonists of the Thyroid Stimulating Hormone Receptor: Activators of Intracellular cAMP Concentrations in Parental HEK 293; note: nearly all actives have a fitted effect of over 55% in size; for activation: % of control where 0% means no effect
Details: parental HEK293 CNG cAMP sensor, membrane potential fluorescence; activation: at 57.1 µM (top of the series) unless noted
Summary of the method: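 Counterscreen for endogenous-receptor signalling: CNG-channel HEK 293 cells report cAMP rise by membrane depolarization. After 60 min dye equilibration with 100 uM RO 20-1724, compounds incubated 30 min before bottom-read fluorescence at 590 nm.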
Potency is the fitted concentration of half-maximal effect; tags give direction and shape of the fitted curve.

Structure (SMILES)	activation	Potency
O=C(CN(c1ccc(F)cc1)S(=O)(=O)c1ccccc1)NCc1ccco1	inactive: 5.38%	
O=S(=O)(c1ccc(Cl)cc1Br)N1CCCCC1		inconclusive [activator, single point]
C/C(CCC(=O)OC[C@@H]1O[C@H](C#Cc2ccccc2)C=C[C@@H]1Oc1ccc(C)cc1)=N/OC[C@@H](O)COCc1ccco1	inactive: 5.18% [at 11.4 µM]	
CCc1ccc2[nH]c(=O)c(CN(CCN(C)C)C(=O)Nc3ccccc3OC)cc2c1		inconclusive [activator, single point]
CC1(C)CC2(CCO1)N1CC3(C)CN2CC(C)(C1)C3O (stereo not drawn)		inconclusive [activator, single point]
Cc1ccc2cc(C#N)c(NCc3ccco3)nc2c1	inactive: 7.94%	
CCc1ccccc1N(CC)C(=O)CCc1nc(-c2ccc(C)cc2)no1		inconclusive [activator, single point]
Cc1ccc(C(=O)C2CCN(CC(=O)NC3CCCCC3)CC2)cc1		inconclusive [activator, partial curve]
CC(=O)Nc1ccc(S(=O)(=O)NCCc2cc3c(C)ccc(C)c3[nH]c2=O)cc1		active: 25.1 µM
NCCCCCCCCCCNS(=O)(=O)c1cccc2c(Cl)cccc12		inconclusive [activator, single point]
O=C(O)CCC(=O)N(Cc1ccco1)c1nc(-c2ccccc2)cs1		inconclusive [activator, partial curve]
CCNC(=O)NCCc1c[nH]c2ccc(Cl)cc12		inconclusive [activator, single point]
CC(C)OC(=O)CSc1ncnc2c1cnn2-c1ccccc1		inconclusive [activator, partial curve, poor fit]
COc1ccc(OC)c2[nH]c(=O)c(CCNC(=O)C(C)C)cc12		inconclusive [activator, single point]
O=C(CSc1nc2ccccc2o1)c1ccc2c(c1)OCCO2	inactive: 20.4%	
CCOc1ccccc1N1CCN(Cc2ccc(OC)c(OC)c2OC)CC1		inconclusive [activator, single point]
CCOC(=O)c1sc2nc(N3CCOCC3)c3c(c2c1N)CCC3		inconclusive [activator, single point]
CC(C)c1ccc(CNc2ccc(N3CCOCC3)cc2)cc1	inactive: -10.4%	
Cn1c(-c2ccc(F)cc2)cnc1NCc1ccccc1	inactive: 12%	
Cc1cc(N2CCOCC2)nc(NCc2ccccc2)n1		inconclusive [activator, partial curve]
COc1ccccc1NC(=O)C1=C(C)Nc2nnnn2C1c1cccc(C)c1 (stereo not drawn)	inactive: 2.52%	
CSc1nnc(CNC(=O)c2ccccc2)n1-c1ccc(F)cc1	inactive: -1.99%	
COC(=O)c1cc2c(=O)n3ccccc3nc2n(C(C)C)c1=N	inactive: 5.26%	
CC(=O)Oc1cc(C(F)(F)F)ccc1C(=O)O	inactive: 26.5% [at 25.6 µM]	

Structure (SMILES)	activation	Potency
CN1C(=O)NC(NC(=O)c2ccncc2)(C(F)(F)F)C1=O (stereo not drawn)		inconclusive [activator, single point]
CCn1ccc(C(=O)Nc2ccc(Cl)cn2)n1		inconclusive [activator, single point]
N#Cc1c(NC(=O)Cn2c(=O)oc3ccccc32)oc(-c2ccccc2)c1-c1ccccc1		inconclusive [activator, partial curve]
O=c1oc2ccccc2cc1-c1cn2cccnc2n1		inconclusive [activator, single point]
C[C@@H](C(=O)O)/C(=C/c1ccc2c(c1)OCO2)C(=O)O	inactive: 0.814% [at 11.4 µM]	
COc1cc2c3cc1Oc1cc(ccc1O)C[C@@H]1c4c(cc(OC)c(O)c4Oc4ccc(cc4)C[C@H]3[N+](C)(C)CC2)CC[N+]1(C)C		inconclusive [activator, single point]
CCOC(=O)Cn1cnc2c(C#N)c3n(c2c1=O)CCCCC3		inconclusive [activator, single point]
CC1(C)Oc2ccc(C(=O)N3CCCCC3)cc2N(CC(=O)NCc2ccccc2)C1=O		inconclusive [activator, single point]
COc1ccc(Cl)cc1NC(=O)CN(C)C(C)C(=O)NCC1CCCCC1 (stereo not drawn)		inconclusive [activator, partial curve]
Cc1cc(-n2nnc3ccccc32)nc2ccccc12		inconclusive [activator, single point]
N[C@H]1[C@@H](C(=O)O)[C@H]2C=C[C@H]1C2	inactive: -1.02% [at 11.4 µM]	
N[C@H](C(=O)O)C1[C@H](C(=O)O)[C@H]1C(=O)O (stereo partly drawn)	inactive: 9.16%	
COc1ccc(CNc2nc(-c3cccnc3)nc3ccccc23)c(OC)c1		inconclusive [activator, partial curve, poor fit]
O=S(=O)(CCc1ccccc1)/N=C/c1cccs1		inconclusive [activator, single point]
CCOc1ccc2nc(NC(=O)c3ccc(S(=O)(=O)N4CCOCC4)cc3)sc2c1	inactive: 9.56%	
CCc1cc2c3c(c(=O)oc2cc1O)CCCC3		inconclusive [activator, single point]
COc1ccc2nc(NC(=O)c3cccc(OCc4c(C)noc4C)c3)sc2c1		inconclusive [activator, partial curve]
CCCCOc1cccc(C(=O)Nc2ccc(N3CCN(CC)CC3)cc2)c1	inactive: -43.6%	
COc1cc(C(C)=O)ccc1OCC(=O)c1cc(C)n(C2CC2)c1C	inactive: 7.78%	
Cc1cc(NC(=O)c2ccc3c(c2)OCO3)no1	inactive: -8.57%	
Cc1noc(C)c1C(=O)N1CCC2(CCN(Cc3nccs3)CC2)CC1	inactive: 4.13%	
COc1ccccc1CNC(=O)c1cc2sccc2n1C	inactive: 29.4%	
CN(C)c1ccc2c(c1)OC(N)=C(C#N)C2c1cccc(F)c1 (stereo not drawn)		active: 31.6 µM
CCc1ccc2[nH]c(=O)c(CN(CCCN3CCOCC3)C(=O)Nc3ccccc3)cc2c1	inactive: 1.47%	
